Each structure is given as a SMILES string. Among all 310,000 compounds or so, about 14,000 (4.5%) showed an effect of 50% or more. The effect is printed as a negative number. This is one part of the list.
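Further: peak tail current of the secondary pulse compared with the same well before compound.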

The target in the assay is human ether-à-go-go-related gene (hERG) potassium channel (human, UniProt Q12809). The assay can be described thus: primary screen, population patch clamp on CHO cells stably expressing hERG.
human ether-à-go-go-related gene (hERG) potassium channel, sequence (Q12809 whole entry, looked up): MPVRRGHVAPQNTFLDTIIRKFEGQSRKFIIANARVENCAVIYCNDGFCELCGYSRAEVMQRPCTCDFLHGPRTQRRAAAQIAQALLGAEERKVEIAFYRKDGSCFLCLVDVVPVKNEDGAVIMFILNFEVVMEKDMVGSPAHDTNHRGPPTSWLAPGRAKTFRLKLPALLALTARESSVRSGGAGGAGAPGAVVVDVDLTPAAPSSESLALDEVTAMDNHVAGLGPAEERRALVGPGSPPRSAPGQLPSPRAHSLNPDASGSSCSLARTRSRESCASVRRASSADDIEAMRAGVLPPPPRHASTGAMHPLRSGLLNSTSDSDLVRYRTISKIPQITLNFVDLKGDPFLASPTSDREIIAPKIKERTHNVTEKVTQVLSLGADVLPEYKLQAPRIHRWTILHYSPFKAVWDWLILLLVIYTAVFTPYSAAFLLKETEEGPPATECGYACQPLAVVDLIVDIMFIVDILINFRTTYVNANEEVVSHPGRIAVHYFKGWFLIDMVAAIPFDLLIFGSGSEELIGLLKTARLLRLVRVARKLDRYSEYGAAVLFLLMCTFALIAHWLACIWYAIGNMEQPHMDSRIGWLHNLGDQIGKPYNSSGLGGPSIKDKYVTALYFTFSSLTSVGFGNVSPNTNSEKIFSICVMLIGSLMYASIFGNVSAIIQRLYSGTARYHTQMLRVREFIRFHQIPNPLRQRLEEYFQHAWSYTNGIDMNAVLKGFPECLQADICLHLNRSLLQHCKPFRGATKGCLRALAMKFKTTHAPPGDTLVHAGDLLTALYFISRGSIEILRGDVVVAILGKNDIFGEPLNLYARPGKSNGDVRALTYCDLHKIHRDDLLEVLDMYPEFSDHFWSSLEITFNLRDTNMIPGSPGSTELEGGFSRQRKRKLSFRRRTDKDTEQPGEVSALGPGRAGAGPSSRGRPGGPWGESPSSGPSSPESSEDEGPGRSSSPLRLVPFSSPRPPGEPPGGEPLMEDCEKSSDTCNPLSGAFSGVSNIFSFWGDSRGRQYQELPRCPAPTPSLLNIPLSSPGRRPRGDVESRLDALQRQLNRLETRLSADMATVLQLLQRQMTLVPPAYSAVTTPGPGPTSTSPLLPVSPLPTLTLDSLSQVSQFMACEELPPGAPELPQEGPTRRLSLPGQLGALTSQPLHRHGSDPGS
Regarding `CC(C)(C)c1ccc(S(=O)(=O)NNC(=O)c2cc3ccccc3[nH]2)cc1`, the “hERG current change (%, negative = inhibition) at 10uM” value was found to be 13.9%.

Take `CCNC(=S)NNC(=O)c1cc(-c2cccc(OCC)c2)nc2ccccc12`: the “hERG current change (%, negative = inhibition) at 10uM” value is given as -8.38%.

Consider `COc1ccc(N(CC(=O)O)S(=O)(=O)c2ccc(OC)c(OC)c2)cc1`, for which the “hERG current change (%, negative = inhibition) at 10uM” value is -29.6%.

`COc1ccc(N2CCN(C(=O)CCC(=O)NNc3nc4ccccc4c4nc(C)nn34)CC2)cc1`: the “hERG current change (%, negative = inhibition) at 10uM” value is reported as -29.1%.

For the compound `C/C(=N\Nc1ccc(C(=O)O)cc1)c1ccc(-n2ccnc2)cc1.O=S(=O)(O)O`, the “hERG current change (%, negative = inhibition) at 10uM” value amounted to 14.5%.

With `Cc1onc(-c2c(F)cccc2Cl)c1C(=O)N1CCN(c2ncccn2)CC1`, the “hERG current change (%, negative = inhibition) at 10uM” value is recorded as -11.6%.

In the case of `Cc1cccc(C)c1NC(=O)COC(=O)c1ccccc1O`, the “hERG current change (%, negative = inhibition) at 10uM” value worked out at 1.57%.

With `CC(=O)Nc1ccc(S(=O)(=O)NC(C)c2ccncc2)cc1` (stereo not drawn), the “hERG current change (%, negative = inhibition) at 10uM” value was determined as 13.4%.

With `COc1ccc(OCC(O)CN2CC(C)OC(C)C2)cc1.Cl` (stereo not drawn), the “hERG current change (%, negative = inhibition) at 10uM” value stood at 17.5%.

In the case of `CN(C)C(=O)c1ccccc1NC(=O)Cc1cccc2ccccc12`, the “hERG current change (%, negative = inhibition) at 10uM” value was 17.9%.

As to `NC(=O)COC(=O)/C=C/c1ccc(S(=O)(=O)N2CCCCCC2)cc1`, the “hERG current change (%, negative = inhibition) at 10uM” value is recorded as 4.74%.

`O=C(O)c1nnn(-c2cc(C(F)(F)F)cc(C(F)(F)F)c2)c1-c1ccccc1`: the “hERG current change (%, negative = inhibition) at 10uM” value was determined as 15.5%.

`COc1ccc(OC)c(/C=C/C(=O)NC2=NCCS2)c1`: the “hERG current change (%, negative = inhibition) at 10uM” value is recorded as 1.7%.

For `COCCSc1nnc(NC(=O)c2ccc(NC(=O)C(C)C)cc2)s1`, the “hERG current change (%, negative = inhibition) at 10uM” value is 8.82%.

Consider `O=c1cc(O)nc(SCc2ccccc2Cl)[nH]1`, for which the “hERG current change (%, negative = inhibition) at 10uM” value is on record as 18.6%.

As for `COc1ccc(CNC(=O)C(C)N2C(=O)COc3ccc(C)cc32)c(OC)c1` (stereo not drawn), the “hERG current change (%, negative = inhibition) at 10uM” value was determined as 8.76%.

Consider `CCCN1Cc2cccc(C(=O)NCCc3ccccc3)c2C1=O`, for which the “hERG current change (%, negative = inhibition) at 10uM” value is recorded as -18.3%.

In the case of `CCCCC(CC)C(=O)NCCc1ccc(S(N)(=O)=O)cc1` (stereo not drawn), the “hERG current change (%, negative = inhibition) at 10uM” value is given as 0.61%.

Consider `CCN(CC)Cc1c[nH]c2ccccc12`, for which the “hERG current change (%, negative = inhibition) at 10uM” value is listed as -1.42%.

Consider `Nc1nnc(CC(=O)Nc2ccccc2)s1`, for which the “hERG current change (%, negative = inhibition) at 10uM” value is recorded as 6.99%.

For `CCOc1ccccc1N(CC(=O)N(C)Cc1ccccc1)S(=O)(=O)c1ccccc1`, the “hERG current change (%, negative = inhibition) at 10uM” value was -19.2%.

In the case of `Cn1c(=O)[nH]c(Nc2ccc(F)cc2)c([N+](=O)[O-])c1=O`, the “hERG current change (%, negative = inhibition) at 10uM” value stood at 2.52%.

Consider `Cc1ccc(S(=O)(=O)N2C(=O)CCC2C(=O)O/N=C(\N)c2ccccc2)cc1` (stereo not drawn), for which the “hERG current change (%, negative = inhibition) at 10uM” value is listed as -8.8%.

Take `CCOc1ccc(C(=O)C(C)OC(=O)Cn2[nH]c(=O)c3ccccc3c2=O)cc1` (stereo not drawn): the “hERG current change (%, negative = inhibition) at 10uM” value is given as -34.3%.

For the compound `COC(=O)c1cccc(NS(=O)(=O)c2ccc(NC(C)=O)cc2)c1C`, the “hERG current change (%, negative = inhibition) at 10uM” value is on record as 0.788%.

On to `C=CCn1c(NCCOC)nc2c1c(=O)n(C)c(=O)n2C`, for which the “hERG current change (%, negative = inhibition) at 10uM” value is on record as 11.1%.

Turning to `COC(=O)c1sccc1Oc1ccc(Cl)cc1N1C(=O)CCC1=O`, the “hERG current change (%, negative = inhibition) at 10uM” value was 14%.

In the case of `Cc1nnc(SCC(=O)N/N=C/c2cn(-c3ccccc3)nc2-c2ccc(F)cc2)n1-c1ccccc1`, the “hERG current change (%, negative = inhibition) at 10uM” value is listed as -3.86%.

In the case of `CCOC(=O)N1CCN(C(=O)C2CCN(S(=O)(=O)N3CCCC3)CC2)CC1`, the “hERG current change (%, negative = inhibition) at 10uM” value stood at 6.91%.

As to `CCNC(=S)N/N=C/c1cccs1`, the “hERG current change (%, negative = inhibition) at 10uM” value worked out at 6.26%.

In the case of `COc1ccc(S(=O)(=O)N2CCCCC2)cc1NC(=O)CCCNC(=O)c1ccc(Cl)cc1`, the “hERG current change (%, negative = inhibition) at 10uM” value stood at 6.98%.

For the compound `Cc1nn(Cc2ccc(C(=O)Nc3ccccc3F)cc2)c(C)c1Cl`, the “hERG current change (%, negative = inhibition) at 10uM” value came to 11.3%.

`Cc1cc(NS(=O)(=O)c2ccc(NC(=O)c3c(F)c(F)c(F)c(F)c3F)cc2)nc(C)n1`: the “hERG current change (%, negative = inhibition) at 10uM” value came out at 4.63%.

For the compound `COc1ccc(-c2c(=O)n(OCc3nc4ccccc4[nH]3)c3ccccc3[n+]2[O-])cc1`, the “hERG current change (%, negative = inhibition) at 10uM” value is given as -4.26%.

On to `Cc1cc(C=C2C(=O)N(C)C(=S)N(C)C2=O)c(C)n1C1CCCC1`, for which the “hERG current change (%, negative = inhibition) at 10uM” value is given as 14.1%.

As to `C=CCn1c(SCC(=O)NC2CC2)nc2ccccc2c1=O`, the “hERG current change (%, negative = inhibition) at 10uM” value is listed as -3.94%.

Regarding `O=C1CC(c2ccccc2)n2nc(NC(=O)c3cccs3)nc2N1` (stereo not drawn), the “hERG current change (%, negative = inhibition) at 10uM” value was -0.0115%.

Turning to `Cc1[nH]c2ccccc2c1C(=O)COC(=O)c1nccnc1N`, the “hERG current change (%, negative = inhibition) at 10uM” value was -9.83%.

With `COC(=O)c1ccc(Cl)c(NC(=O)CN2CCC(C)CC2)c1`, the “hERG current change (%, negative = inhibition) at 10uM” value is listed as -21.5%.

As to `CCOc1ccc(NC(=O)c2ccc3c(c2)CCN3S(C)(=O)=O)cc1`, the “hERG current change (%, negative = inhibition) at 10uM” value is 6.24%.

In the case of `Cc1ccc(NC(=O)COC(=O)c2cc(-c3cccs3)nn2-c2ccccc2)cc1[N+](=O)[O-]`, the “hERG current change (%, negative = inhibition) at 10uM” value is -4.24%.

Take `CC(NC(=O)Cn1cnnn1)C12CC3CC(CC(C3)C1)C2` (stereo not drawn): the “hERG current change (%, negative = inhibition) at 10uM” value was determined as 7.75%.

As for `Cc1[nH]nc(N=CC2=C(O)CC(c3ccco3)CC2=O)c1-c1ccc(Cl)cc1` (stereo not drawn), the “hERG current change (%, negative = inhibition) at 10uM” value was -4.37%.

`O=C(Nc1ccccc1C(F)(F)F)N1CCCC(O)C1` (stereo not drawn): the “hERG current change (%, negative = inhibition) at 10uM” value amounted to 11.2%.

For `CCN(CC)S(=O)(=O)c1cc(NC(=O)C(C)N2CCc3ccccc32)ccc1C` (stereo not drawn), the “hERG current change (%, negative = inhibition) at 10uM” value came to 10.8%.

The record behind these values is paper PMC4336329 (PLoS ONE, 2015).
